The source of these data is article PMC4336329 (PLoS ONE, 2015).

About 2,200 (0.71%) of roughly 310,000 compounds showed an effect of 50% or more. Effects have a minus sign here. Some of the results follow.

Chain of human ether-à-go-go-related gene (hERG) potassium channel (Q12809 whole entry, looked up): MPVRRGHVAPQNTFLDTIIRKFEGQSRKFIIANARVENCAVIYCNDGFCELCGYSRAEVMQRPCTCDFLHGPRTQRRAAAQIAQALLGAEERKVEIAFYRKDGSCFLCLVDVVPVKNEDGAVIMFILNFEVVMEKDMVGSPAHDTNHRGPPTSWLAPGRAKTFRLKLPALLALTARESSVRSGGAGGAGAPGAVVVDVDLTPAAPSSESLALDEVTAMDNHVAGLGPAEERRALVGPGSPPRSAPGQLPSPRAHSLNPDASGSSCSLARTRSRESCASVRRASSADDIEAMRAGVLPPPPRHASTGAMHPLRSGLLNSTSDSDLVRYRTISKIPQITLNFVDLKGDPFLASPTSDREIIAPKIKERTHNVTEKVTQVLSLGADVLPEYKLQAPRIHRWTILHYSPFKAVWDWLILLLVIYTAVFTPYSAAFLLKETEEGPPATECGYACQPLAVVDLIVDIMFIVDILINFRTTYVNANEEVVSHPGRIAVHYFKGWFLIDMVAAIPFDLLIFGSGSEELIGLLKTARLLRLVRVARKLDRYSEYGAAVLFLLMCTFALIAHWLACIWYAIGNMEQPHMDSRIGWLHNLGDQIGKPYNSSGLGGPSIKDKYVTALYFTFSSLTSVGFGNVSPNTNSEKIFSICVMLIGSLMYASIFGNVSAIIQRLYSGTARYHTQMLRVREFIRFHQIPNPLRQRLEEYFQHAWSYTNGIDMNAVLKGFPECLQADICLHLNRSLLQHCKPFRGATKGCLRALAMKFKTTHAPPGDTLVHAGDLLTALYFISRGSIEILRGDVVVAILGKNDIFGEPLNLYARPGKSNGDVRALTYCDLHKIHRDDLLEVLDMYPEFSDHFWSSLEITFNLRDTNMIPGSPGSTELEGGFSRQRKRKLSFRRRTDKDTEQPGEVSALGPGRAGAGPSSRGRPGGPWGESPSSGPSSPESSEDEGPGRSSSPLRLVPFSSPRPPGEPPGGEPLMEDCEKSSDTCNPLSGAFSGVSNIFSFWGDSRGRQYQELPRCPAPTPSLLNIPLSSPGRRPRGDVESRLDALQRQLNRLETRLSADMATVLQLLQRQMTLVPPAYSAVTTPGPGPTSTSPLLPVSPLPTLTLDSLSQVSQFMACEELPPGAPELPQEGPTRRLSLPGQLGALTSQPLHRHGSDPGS

This assay concerns the target human ether-à-go-go-related gene (hERG) potassium channel (human, UniProt Q12809). As to the kind of experiment: primary screen, population patch clamp on CHO cells stably expressing hERG.
Turning to `COc1cccc(C(=O)NC(=S)Nc2nnn(C)n2)c1`, the “hERG current change (%, negative = inhibition) at 1uM” value was 10.9%.

As for `COc1cc(-c2cc(=O)c3c(O)c(OC)c(OC)c(OC)c3o2)cc(OC)c1OC`, the “hERG current change (%, negative = inhibition) at 1uM” value was found to be 12.5%.

Take `CCCCOc1cccc(-c2cc(C(=O)NNC(=S)NCC)c3ccccc3n2)c1`: the “hERG current change (%, negative = inhibition) at 1uM” value was 12.1%.

For `O=[N+]([O-])c1cncc([N+](=O)[O-])c1Nc1cccc(O)c1`, the “hERG current change (%, negative = inhibition) at 1uM” value was determined as 12.9%.

Turning to `CC1=NNC(=O)C1C(c1ccccc1)C(C#N)C#N` (centres unmarked), the “hERG current change (%, negative = inhibition) at 1uM” value worked out at 10.6%.

For `CC1CCc2c(nc3ncnn3c2NCCc2ccccc2F)C1` (centres unmarked), the “hERG current change (%, negative = inhibition) at 1uM” value is given as 0.709%.

Consider `COc1ccc(S(=O)(=O)N2CCC(C(=O)N[C@H](C(=O)N3CCCCCC3)C(C)C)CC2)cc1`, for which the “hERG current change (%, negative = inhibition) at 1uM” value is given as 12.3%.

For `CSc1nc2c(c(=O)[nH]1)CCCC2`, the “hERG current change (%, negative = inhibition) at 1uM” value came out at 15.6%.

As for `O=C(NCCCCCNC(=O)c1ccco1)c1ccco1`, the “hERG current change (%, negative = inhibition) at 1uM” value is on record as 15.5%.

Regarding `Cc1cc(C)cc(Oc2cc(NC(=O)c3cn(C)nc3C)cc([N+](=O)[O-])c2)c1`, the “hERG current change (%, negative = inhibition) at 1uM” value is 8.34%.

As to `Cc1cc(C(=O)CSc2nc(N)cc(=O)[nH]2)c(C)n1-c1cccc(F)c1`, the “hERG current change (%, negative = inhibition) at 1uM” value was 1.93%.

As for `COc1ccc(-n2cc(CNC3CCC(O)CC3)c(-c3cccc(F)c3)n2)cc1` (centres unmarked), the “hERG current change (%, negative = inhibition) at 1uM” value worked out at 4.86%.

As to `CCOc1ccccc1C(=O)NC1CCNCC1`, the “hERG current change (%, negative = inhibition) at 1uM” value is on record as 16.5%.

Consider `O=C(CSc1nc(O)c(C2CCCCC2)c(=O)[nH]1)Nc1ccccc1Cl`, for which the “hERG current change (%, negative = inhibition) at 1uM” value is given as 7.21%.

Take `CN(C)c1ccc(CNC23CN4CN(CN(C4)C2)C3)cc1`: the “hERG current change (%, negative = inhibition) at 1uM” value is 5.35%.

`COc1ccc(N(CC(=O)NCc2cccs2)S(=O)(=O)c2c(C)nn(C)c2C)cc1`: the “hERG current change (%, negative = inhibition) at 1uM” value was determined as 5.96%.

As to `CC(C)(C)OC(=O)NC(Cc1ccccc1)C(=O)NCCCC(=O)O` (centres unmarked), the “hERG current change (%, negative = inhibition) at 1uM” value amounted to 8.24%.

On to `Cc1ccc(C(=O)OCCc2c(C)[nH]n(-c3ccccc3)c2=O)cc1`, for which the “hERG current change (%, negative = inhibition) at 1uM” value stood at 3.33%.

Consider `Cc1ccc(C)c(-c2nc3cc(N)ccc3o2)c1`, for which the “hERG current change (%, negative = inhibition) at 1uM” value turned out to be 16.5%.

Regarding `O=C(NC1CCCCC1)N1CCN(c2ncccn2)CC1`, the “hERG current change (%, negative = inhibition) at 1uM” value turned out to be 15.3%.

Regarding `CC(c1ccccc1)N1C(=O)C2C3C=CC(C4CC34)C2C1=O` (centres unmarked), the “hERG current change (%, negative = inhibition) at 1uM” value worked out at 11.8%.

For `O=c1[nH]c2ccc(NS(=O)(=O)c3ccc4ccccc4c3)cc2[nH]1`, the “hERG current change (%, negative = inhibition) at 1uM” value is 9.88%.

In the case of `CN1CCN(C(=O)c2cc3cc(Cl)ccc3[nH]2)CC1.Cl`, the “hERG current change (%, negative = inhibition) at 1uM” value was -0.452%.

Regarding `COc1ccc(C)cc1NC(=O)CN1C(=O)COc2ccc(S(=O)(=O)N3CCC(C)CC3)cc21`, the “hERG current change (%, negative = inhibition) at 1uM” value is reported as 16.8%.

Regarding `CN(C)/C=C/C(=O)c1ccc(F)cc1F`, the “hERG current change (%, negative = inhibition) at 1uM” value was 10.8%.

With `CO/N=C(\CS(=O)(=O)Cc1ccc(OC)cc1)c1ccc(Cl)cc1`, the “hERG current change (%, negative = inhibition) at 1uM” value is recorded as 14.9%.

Turning to `O=C(Cc1ccccc1)Nc1nc(=O)c2ccccc2s1`, the “hERG current change (%, negative = inhibition) at 1uM” value was determined as 6.37%.

Consider `O=S1(=O)CC/C(=N/Nc2ccccn2)c2cc(F)ccc21`, for which the “hERG current change (%, negative = inhibition) at 1uM” value is on record as 14.5%.

As to `CCC(C)Nc1ncnc2c1cnn2Cc1ccc(Cl)cc1` (centres unmarked), the “hERG current change (%, negative = inhibition) at 1uM” value is 2.58%.

For the molecule `Cn1cccc1/C=C1\SC(=S)N(NC(=O)c2ccc(F)cc2)C1=O`, the “hERG current change (%, negative = inhibition) at 1uM” value came out at 13.6%.

Regarding `O=C(c1ccco1)N1CCN(c2ncnc3c(-c4ccccc4)nsc23)CC1`, the “hERG current change (%, negative = inhibition) at 1uM” value is on record as 4.97%.

With `Cc1ccc(C(=O)CSC2=C(C#N)C(c3ccco3)C3=C(CC(C)(C)CC3=O)N2)cc1` (centres unmarked), the “hERG current change (%, negative = inhibition) at 1uM” value stood at 11.5%.

On to `COc1ccccc1-c1nnc2sc(COc3ccc(F)cc3)nn12`, for which the “hERG current change (%, negative = inhibition) at 1uM” value was found to be 2.52%.

`CC(C)(C)NC(=O)N1c2ccccc2Sc2ccccc21`: the “hERG current change (%, negative = inhibition) at 1uM” value came out at 15%.

In the case of `CCOc1ccc(N2C(=O)CC(Sc3nc(-c4cccs4)cc(C(F)(F)F)c3C#N)C2=O)cc1` (centres unmarked), the “hERG current change (%, negative = inhibition) at 1uM” value was 9.85%.

For the molecule `CCC(=O)Nc1nnc(S(=O)(=O)N2CCCCCC2)s1`, the “hERG current change (%, negative = inhibition) at 1uM” value is listed as 13.4%.

`C=CCn1c(Oc2ccc(C=O)cc2OCC)nc2c1c(=O)n(C)c(=O)n2C`: the “hERG current change (%, negative = inhibition) at 1uM” value was 11.9%.

On to `COc1cc(-c2cc(-c3ccc(O)cc3)nc(N)c2C#N)ccc1O`, for which the “hERG current change (%, negative = inhibition) at 1uM” value is given as 2.7%.

Turning to `O=C(O)COc1ccc2c(c1)O/C(=C\c1cccs1)C2=O`, the “hERG current change (%, negative = inhibition) at 1uM” value was found to be 16.4%.

Turning to `Cc1cc(C)c2c(c1)cc(C)c1nnc(SCC(=O)N3CCCc4ccccc43)n12`, the “hERG current change (%, negative = inhibition) at 1uM” value amounted to 11.1%.

Consider `CCCN1CCC2(CC1)C(C#N)=C(N)Oc1c2sc2nc(C)cc(C)c12`, for which the “hERG current change (%, negative = inhibition) at 1uM” value was -21.1%.

`CCOc1ccccc1C(=O)N[C@H](C(=O)OCc1cc([N+](=O)[O-])cc2c1OCOC2)C(C)C`: the “hERG current change (%, negative = inhibition) at 1uM” value worked out at 11.8%.

As for `Cc1c(-c2ccc(Cl)cc2)oc(=O)c2c(N)n(-c3ccccc3)nc12`, the “hERG current change (%, negative = inhibition) at 1uM” value stood at 3.8%.

For `CCOC(=O)N1CCN(c2c(N3CCN(C(=O)OCC)CC3)c(=O)c2=O)CC1`, the “hERG current change (%, negative = inhibition) at 1uM” value worked out at 4.35%.
